Test results reported in the supplement of paper PMC11417369.
± gives the standard deviation of the averaged measurements. The list shows a part of the results.

system: PfAP2-I AP2 domain 3 (GST-tagged); test: gcPBM binding intensity (ln(normalized median fluorescence intensity)); higher = stronger DNA binding
How it was run: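 Each value is the highest Masliner-normalised natural-log median intensity across replicate spots of either orientation of a probe. The probes were primer-extended double-stranded 36-bp intergenic genomic sequences on an Agilent 4 × 180k array, alongside negative controls, exposed for 1 h to GST-tagged P. falciparum DNA-binding domains expressed in E. coli. Bound protein was picked up with Alexa488 anti-GST antibody and scanned at 488 nm.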

Sequence | gcPBM binding intensity (ln)
AATATAAATAAAAAATTGATTTCTTTAAAAAGGTAT [CACACA_negctrl_site1038] | 7.59 ± 0.64
TAATCATAAAAAAATACACACATATATAATATATAT [CACACA_site1983] | 7.73 ± 0.44
ATACAAAATCTAATTTGTACACAATGTTTGATTTTT [XGTACX_site5438] | 7.63 ± 0.47
TATCCATATTTGTTCACACACACACCCATTTATATA [CACACA_site3571] | 8.15 ± 0.76
ATTTTTATGTTGAAAAGTACTTGAATCCCATGTAAC [XGTACX_site4453] | 7.91 ± 0.43
TTCTTTTTTTTTAAAACAAACAAACAAACAAACAAA [CACACA_negctrl_site832] | 7.76 ± 0.59
TATTTATTTATTTAGTGTACATTTATATTTGTTCAT [XGTACX_site7575] | 8.03 ± 0.4
TTAATCTTTCCTACATGTACACACAGAAAAAAAAAA [XGTACX_site5213] | 8.14 ± 0.34
TATAGGTAAATGGACACACACATATTTATATTTATA [CACACA_site7683] | 7.75 ± 0.53
TGTAGTCTGGAGAAGAGTACATAGTATCTGGTAACA [XGTACX_site4944] | 7.58 ± 0.69
ATAGAAGCATCACACTGTACATGGATGAACAGAAAA [XGTACX_site7311] | 7.64 ± 0.71
TATAATATAAGGATCACACACAAACAGACATATATA [CACACA_site557] | 7.92 ± 0.56
TAATGTTTTTATATCACACACAAATATTAAATGATT [CACACA_site543] | 7.72 ± 0.51
TTATTAGGTGTATAATGTACATATAATATATATATA [XGTACX_site3398] | 8.93 ± 0.092
TTAAAAATTATGGATACACACATATATATATATATT [CACACA_site2383] | 7.62 ± 0.4
GATATTAAAATATGTAGTACACATATTATATCATAT [XGTACX_site4167] | 8.005 ± 0.064
ATAGTTCCTTTTAATACACACAAAAAAAAAAACATG [CACACA_site3415] | 8.05 ± 0.42
AATAAACATAAATACACACACAAAAAAAAAAACATA [CACACA_site4396] | 7.8 ± 0.27
TTTTTTTTTTTTTGATGTACTAAAAAAAATGAGCCT [XGTACX_site8535] | 8.11 ± 0.63
AAAAACAAAATATAATGTACACAATATATGTATATA [XGTACX_site2301] | 7.77 ± 0.17
AAATATTACTACACTACATGCAGTTTTAGGTACACT [TGCATGCA_site42] | 8.05 ± 0.54
AATATCTAAATAAAGTGTACTTACCTTATTAATTAT [XGTACX_site2276] | 7.79 ± 0.29

Sequence | gcPBM binding intensity (ln)
CCAATACATAGAAACTGTACATTATGCATTATACAC [XGTACX_site3531] | 8.5 ± 0.42
ATTAGCTACAAACAAAGGCTACCTATAGCAAGAGGG [GTGCAC_negctrl_site33] | 8.1 ± 0.69
TATATATATACATACATACACACATATATATATATA [CACACA_site4109] | 9.26 ± 0.47
ATAATTTCTTTTACATGTACAAAATTTGCTTATATG [XGTACX_site5388] | 7.85 ± 0.61
ATATATATAATGTGAAGTACATTTTGTTTACATATT [XGTACX_site8405] | 8.38 ± 0.6
TAATTTATGGAATATGTGCACTTGCTGATCACTTTT [GTGCAC_site9843] | 9.93 ± 0.12
TTTATTAAATAATCTCTTTTTATTACATAATAATAA [XGTACX_negctrl_site382] | 7.34 ± 0.35
TTTACACTTTCCAATAGTACATATTAGAATAATTCT [XGTACX_site7734] | 7.75 ± 0.57
GGATTATTTATAGGAGTGCATACATATATATATATA [GTGCAC_site9454] | 9.76 ± 0.071
TTTTTGTTTCATAAATGTACAAAAACAAACATATTT [XGTACX_site5281] | 7.68 ± 0.28
TCGTCTCAATAATTATAATAAAAAAATTCCTAAGTC [CACACA_negctrl_site338] | 7.62 ± 0.35
ATTTTCCTATTTAGTAGTACTTTTTTCTTTTTTTAA [XGTACX_site5260] | 8.04 ± 0.59
ATTATATTTATTAATATGTATATTTAATTATATTTA [XGTACX_negctrl_site376] | 7.32 ± 0.26
TTTCATCTCGTCATTTCTTATATAACTATTTTATAC [CACACA_negctrl_site813] | 7.83 ± 0.74
ATTATTGTTTATTGATTTTTGTTAAAATAGGAAATT [GTGCAC_negctrl_site181] | 7.61 ± 0.48
TTCTTTATTATATGCACACGTACATAAAATATATAT [CACACA_site5157] | 9.72 ± 0.14
AAGTGTAAAAGTTACACACACAAACTTGTCATTTTT [CACACA_site4614] | 7.54 ± 0.53
CAAATTTTTTATTAAACACACAAACATATATATATA [CACACA_site5122] | 9.19 ± 0.33
ATTTTTTTTTTTTTTTGTACGAATAATATGTATGAA [XGTACX_site5318] | 7.76 ± 0.11
TATAAAAAATATATATATAATATTATATATATATAT [TGCATGCA_negctrl_site260] | 9.03 ± 0.092
AAAGGAGGGAATTTTTCTAGGTGTGGAGTGCTACTC [XGTACX_negctrl_site63] | 7.91 ± 0.64
AAGAAAAGAAACAAAAAAAAAAAGAAATAAAAGGAA [TGCATGCA_negctrl_site171] | 7.66 ± 0.57

Sequence | gcPBM binding intensity (ln)
TTATTATCATCAAATCAAAAAATTCTTTTACCTGTT [CACACA_negctrl_site1348] | 7.42 ± 0.67
TATATATATATATGTAGTACCTATAATATTAAATAC [XGTACX_site6118] | 9.17 ± 0.18
TATGAATGGTTAAGTACACACATATTAATATAGGTA [CACACA_site7606] | 7.79 ± 0.49
ATCAATAAATAAAATGTGCACATAATATATTAATAC | 9.77 ± 0.57
AATTTTTTTTTTTTTTTTTTTTATATATGTGTGTGT [XGTACX_negctrl_site129] | 7.59 ± 0.28
CTTATAAATAAAAGAAGTACATGTTAGTTCAAGTTA [XGTACX_site4183] | 7.71 ± 0.44
TTGAAGAAAAAAAAATGTACATAAAAAATATATATG [XGTACX_site428] | 7.96 ± 0.53
GTATATGAATGTTCATGTACATAATAAAATATATAA [XGTACX_site250] | 7.82 ± 0.54
AAATTAAAATATAATACACACATAAAAAAAAAATCA [CACACA_site5918] | 7.68 ± 0.61
ATAAAATATAAAAACGCACACAATTATAAGGGTGTA [CACACA_site177] | 7.95 ± 0.35
ATATATATATATAAAGTGCAAAAATGAAAGTAAGAC [GTGCAC_site9850] | 10.4 ± 0.21
ATGTTCTATAAATATGAACACACGACATATTATTTA [CACACA_site1799] | 7.63 ± 0.47
ATATATATATATATATGTACATATTATTCTCATTGT [XGTACX_site6259] | 9.24 ± 0.3
TATATTTAATTACATGAACACACATTATATATTTTT [CACACA_site8969] | 7.62 ± 0.35
TGTAGTATCAATTTTTGTACATAACACATATGTATA [XGTACX_site613] | 7.66 ± 0.5
AAAACAAACACATTTACACACATAAATAAATCAATT [CACACA_site4122] | 7.8 ± 0.3
TTTATTTTTCCATATGCACACACACCGTATATATAA [CACACA_site8293] | 9.22 ± 0.19
ATACATACATACATACGTACATATGTATATATATAT [XGTACX_site8498] | 8.88 ± 0.44
TATTCATTCTATAAAACACACAAATATTTTTGTATC [CACACA_site666] | 7.66 ± 0.49
AAAATATAAATATATTTGAACATGGATCAAATGTAA [GTGCAC_negctrl_site626] | 7.29 ± 0.54
AAAAAAAAATAGAAATGTACAAATTGTAATAATTCC [XGTACX_site6182] | 7.47 ± 0.73
CATATGATATTATTTTGTACTTATTACAAATATGAA [XGTACX_site7929] | 7.63 ± 0.26

Sequence | gcPBM binding intensity (ln)
GAGCATTACACATATACACACATATATATAAACATA [CACACA_site5515] | 8.2 ± 0.45
TATAATAATATTTATTGTACGATTAGATTAATTCAT [XGTACX_site612] | 7.46 ± 0.54
ATATATATATATATTTGTACATAATATATATATGCA [XGTACX_site1795] | 9.28 ± 0.48
AAACAATTTAGACATACACACAAAAATAATATTATA [CACACA_site384] | 7.68 ± 0.61
ATATATATATATATATGTACATATTGTATTATTCAC [XGTACX_site6511] | 9.41 ± 0.49
ATTAAAAAAAAGCTCATCGAAATGTCTTATATAAAT [CACACA_negctrl_site912] | 7.55 ± 0.65
CACGAAAATTTGTAGAGTACATATATAATTAATATA [XGTACX_site3808] | 7.71 ± 0.52
CAATTAAACAATTAAACATGCAAAATGATATAATAA [TGCATGCA_site240] | 7.61 ± 0.68
AATAATCATGATCATAGTACGTATGAATACAAAAAA [XGTACX_site265] | 7.87 ± 0.67
TATCTACTTAAATAAAATAAAAATAATAAATAAAAA [TGCATGCA_negctrl_site312] | 7.5 ± 0.59
ATAAAACAAAGACACACACACATACACAAAAAAAAA [CACACA_site7752] | 8.18 ± 0.45
TTTTATTTATTCCTACTTTTTTATTTATTTATTTAA [XGTACX_negctrl_site415] | 7.74 ± 0.68
ACATTATGTCATAAATGTACACATACATATACATAC [XGTACX_site8998] | 7.81 ± 0.45
CGTATGTATATATATATACACACTTCTGTGATACGA [CACACA_site1949] | 7.78 ± 0.49
ATGTATAATATTTTCACACACAAGAAAAAAGAAAAG [CACACA_site3591] | 7.85 ± 0.33
AAATGAATTTAACAATGTACACATATATTATAAATA [XGTACX_site1449] | 7.61 ± 0.52
TACATAATAATAAGGCGTACATAAAAATTAAAAATT [XGTACX_site8769] | 8.18 ± 0.32
AAAACGATTTTTTGCACACACATAATAAGCAGAACA [CACACA_site3871] | 9.38 ± 0.085
ATATATATATGTATATGTACTCATTCTTCTGTGTTT [XGTACX_site5014] | 9.1
TAAGTCAAAACTTTTTTTTCTAAATTTCCATAATTA [GTGCAC_negctrl_site29] | 7.16 ± 0.58
ATATACATTCTATATACATGCATACTTCATTTTGTG [TGCATGCA_site966] | 8.03 ± 0.85
ATTATACCGTATTTTGCATGTAGTATTTTCATTTTA [TGCATGCA_site1021] | 8.12 ± 0.86
